# Where a name gives a salt, the structure may show the parent alone. Over roughly 1,900 compounds, “cell viability of compound + 1 nM pemigatinib relative to pemigatinib-only (DMSO) wells” has its median near 0.95; the lowest 2% begin near 0.22. The list shows a part of the results.
# Tested on: PDC-DUC18828
# Assay: cell viability of compound + 1 nM pemigatinib relative to pemigatinib-only (DMSO) wells (fraction); PDC-DUC18828 is a patient-derived cholangiocarcinoma cell line; higher = less growth inhibition
# Settings: first compound 1 µM; pemigatinib concentration 1 nM; 72 h
# Method: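 Selleck Bioactive library screen in the patient-derived FGFR2 fusion-positive ICC cell line PDC-DUC18828 (500 cells/well). Each compound was tested at 1 uM with 1 nM pemigatinib, in triplicate, for 72 h. Viability was read by CellTiter-Glo and normalised to plate DMSO controls. Value is the paper's averaged normalised viability.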
row,Compound,cell viability
1,NC(=O)c1cnccn1 [Pyrazinamide] + CCN1C(=O)N(c2c(F)c(OC)cc(OC)c2F)Cc2cnc3[nH]c(CN4CCOCC4)cc3c21 [pemigatinib],0.982
2,Cn1cnc2c(F)c(Nc3ccc(Br)cc3F)c(C(=O)NOCCO)cc21 + CCN1C(=O)N(c2c(F)c(OC)cc(OC)c2F)Cc2cnc3[nH]c(CN4CCOCC4)cc3c21 [pemigatinib],0.8
3,C#Cc1cccc(Nc2ncnc3cc(OCCOC)c(OCCO)cc23)c1 + CCN1C(=O)N(c2c(F)c(OC)cc(OC)c2F)Cc2cnc3[nH]c(CN4CCOCC4)cc3c21 [pemigatinib],0.902
4,CC(C)OC(=O)C(C)(C)Oc1ccc(C(=O)c2ccc(Cl)cc2)cc1 [Fenofibrate] + CCN1C(=O)N(c2c(F)c(OC)cc(OC)c2F)Cc2cnc3[nH]c(CN4CCOCC4)cc3c21 [pemigatinib],0.991
5,OCCOc1ccc(/C(=C(/CCCl)c2ccccc2)c2ccccc2)cc1 [Ospemifene] + CCN1C(=O)N(c2c(F)c(OC)cc(OC)c2F)Cc2cnc3[nH]c(CN4CCOCC4)cc3c21 [pemigatinib],0.972
6,Cc1ccc(NC(=O)C2(c3ccc4c(c3)OC(F)(F)O4)CC2)nc1-c1cccc(C(=O)O)c1 [VX-809 (Lumacaftor)] + CCN1C(=O)N(c2c(F)c(OC)cc(OC)c2F)Cc2cnc3[nH]c(CN4CCOCC4)cc3c21 [pemigatinib],1.07
7,CNC(=O)c1ccc(Nc2ncc(C(F)(F)F)c(NCc3nccnc3N(C)S(C)(=O)=O)n2)cc1 + CCN1C(=O)N(c2c(F)c(OC)cc(OC)c2F)Cc2cnc3[nH]c(CN4CCOCC4)cc3c21 [pemigatinib],0.894
8,Cn1cc(/C=C2\C(=O)Nc3cccnc32)c2ccccc21 + CCN1C(=O)N(c2c(F)c(OC)cc(OC)c2F)Cc2cnc3[nH]c(CN4CCOCC4)cc3c21 [pemigatinib],0.941
9,CN1C(=O)C(Cc2c[nH]c3ccccc23)NC1=S (configuration not stated) [Necrostatin-1] + CCN1C(=O)N(c2c(F)c(OC)cc(OC)c2F)Cc2cnc3[nH]c(CN4CCOCC4)cc3c21 [pemigatinib],1.02
10,CCC[C@H](N[C@H]1CCc2cc(F)cc(F)c2C1)C(=O)Nc1cn(C(C)(C)CNCC(C)(C)C)cn1 + CCN1C(=O)N(c2c(F)c(OC)cc(OC)c2F)Cc2cnc3[nH]c(CN4CCOCC4)cc3c21 [pemigatinib],0.931
11,Cc1cc2c(s1)Nc1ccccc1N=C2N1CCN(C)CC1 [Olanzapine] + CCN1C(=O)N(c2c(F)c(OC)cc(OC)c2F)Cc2cnc3[nH]c(CN4CCOCC4)cc3c21 [pemigatinib],0.957
12,CCn1c(-c2nonc2N)nc2c(C#CC(C)(C)O)ncc(OC[C@H]3CCCNC3)c21 + CCN1C(=O)N(c2c(F)c(OC)cc(OC)c2F)Cc2cnc3[nH]c(CN4CCOCC4)cc3c21 [pemigatinib],0.872
13,O=S(=O)(O)Oc1ccc(C(c2ccc(OS(=O)(=O)O)cc2)c2ccccn2)cc1 [Sodium Picosulfate] + CCN1C(=O)N(c2c(F)c(OC)cc(OC)c2F)Cc2cnc3[nH]c(CN4CCOCC4)cc3c21 [pemigatinib],0.923
14,CCCNC(=O)Nc1ccc(Oc2ncnc3cc(OC)c(OC)cc23)cc1Cl + CCN1C(=O)N(c2c(F)c(OC)cc(OC)c2F)Cc2cnc3[nH]c(CN4CCOCC4)cc3c21 [pemigatinib],1.01
15,NC(=O)c1ccc(-c2nc(-c3ccccn3)c(-c3ccc4c(c3)OCO4)[nH]2)cc1 + CCN1C(=O)N(c2c(F)c(OC)cc(OC)c2F)Cc2cnc3[nH]c(CN4CCOCC4)cc3c21 [pemigatinib],0.974
16,Cc1cn(-c2cc(NC(=O)c3ccc(C)c(Nc4nccc(-c5cccnc5)n4)c3)cc(C(F)(F)F)c2)cn1 [Nilotinib (AMN-107)] + CCN1C(=O)N(c2c(F)c(OC)cc(OC)c2F)Cc2cnc3[nH]c(CN4CCOCC4)cc3c21 [pemigatinib],1.06
17,C[C@@H](O[C@H]1OCCN(Cc2n[nH]c(=O)[nH]2)[C@H]1c1ccc(F)cc1)c1cc(C(F)(F)F)cc(C(F)(F)F)c1 [Aprepitant] + CCN1C(=O)N(c2c(F)c(OC)cc(OC)c2F)Cc2cnc3[nH]c(CN4CCOCC4)cc3c21 [pemigatinib],0.954
18,CNC(=O)c1cc(Oc2ccc3nc(N[C@@H]4CCCC[C@H]4O)sc3c2)ccn1 + CCN1C(=O)N(c2c(F)c(OC)cc(OC)c2F)Cc2cnc3[nH]c(CN4CCOCC4)cc3c21 [pemigatinib],0.95
19,CC(C)(C)c1ccc(S(=O)(=O)/C=C/C#N)cc1 + CCN1C(=O)N(c2c(F)c(OC)cc(OC)c2F)Cc2cnc3[nH]c(CN4CCOCC4)cc3c21 [pemigatinib],0.625

row,Compound,cell viability
1,CCN1C[C@H](C)n2c(c(O)c3c(=O)n(Cc4ccc(F)c(Cl)c4)nc(C(=O)NC)c32)C1=O + CCN1C(=O)N(c2c(F)c(OC)cc(OC)c2F)Cc2cnc3[nH]c(CN4CCOCC4)cc3c21 [pemigatinib],0.987
2,CC(=O)c1c(C)c2cnc(Nc3ccc(N4CCNCC4)cn3)nc2n(C2CCCC2)c1=O + CCN1C(=O)N(c2c(F)c(OC)cc(OC)c2F)Cc2cnc3[nH]c(CN4CCOCC4)cc3c21 [pemigatinib],0.793
3,O=C(O)c1cc(/N=N/c2ccc(S(=O)(=O)Nc3ccccn3)cc2)ccc1O [Sulfasalazine] + CCN1C(=O)N(c2c(F)c(OC)cc(OC)c2F)Cc2cnc3[nH]c(CN4CCOCC4)cc3c21 [pemigatinib],1.06
4,NC(=O)c1ccc(I)c([N+](=O)[O-])c1 [Iniparib (BSI-201)] + CCN1C(=O)N(c2c(F)c(OC)cc(OC)c2F)Cc2cnc3[nH]c(CN4CCOCC4)cc3c21 [pemigatinib],1
5,COc1ccc(C2=N[C@@H](c3ccc(Cl)cc3)[C@@H](c3ccc(Cl)cc3)N2C(=O)N2CCNC(=O)C2)c(OC(C)C)c1 [Nutlin-3] + CCN1C(=O)N(c2c(F)c(OC)cc(OC)c2F)Cc2cnc3[nH]c(CN4CCOCC4)cc3c21 [pemigatinib],1.02
6,COc1ccc(C2=N[C@@H](c3ccc(Cl)cc3)[C@@H](c3ccc(Cl)cc3)N2C(=O)N2CCNC(=O)C2)c(OC(C)C)c1 [Nutlin-3a] + CCN1C(=O)N(c2c(F)c(OC)cc(OC)c2F)Cc2cnc3[nH]c(CN4CCOCC4)cc3c21 [pemigatinib],0.952
7,CN/C(=N\CCSCc1nc[nH]c1C)NC#N [Cimetidine] + CCN1C(=O)N(c2c(F)c(OC)cc(OC)c2F)Cc2cnc3[nH]c(CN4CCOCC4)cc3c21 [pemigatinib],0.945
8,C/C(=C\C(=O)OCCCCCCCCC(=O)O)C[C@@H]1OC[C@H](C[C@@H]2O[C@H]2[C@@H](C)[C@H](C)O)[C@@H](O)[C@H]1O [Mupirocin] + CCN1C(=O)N(c2c(F)c(OC)cc(OC)c2F)Cc2cnc3[nH]c(CN4CCOCC4)cc3c21 [pemigatinib],0.95
9,O=c1oc2cc(O)ccc2s1 [Tioxolone] + CCN1C(=O)N(c2c(F)c(OC)cc(OC)c2F)Cc2cnc3[nH]c(CN4CCOCC4)cc3c21 [pemigatinib],1.01
10,COc1cc2ncnc(Nc3cccc(Cl)c3)c2cc1OC [AG-1478 (Tyrphostin AG-1478)] + CCN1C(=O)N(c2c(F)c(OC)cc(OC)c2F)Cc2cnc3[nH]c(CN4CCOCC4)cc3c21 [pemigatinib],0.816
11,CS(=O)(=O)c1ccc(-c2nnc(/C=C/c3nnc(-c4ccc(C#N)cc4)o3)n2-c2ccccc2Cl)nc1 + CCN1C(=O)N(c2c(F)c(OC)cc(OC)c2F)Cc2cnc3[nH]c(CN4CCOCC4)cc3c21 [pemigatinib],0.735
12,c1coc(CNc2ncnc3[nH]cnc23)c1 [Kinetin] + CCN1C(=O)N(c2c(F)c(OC)cc(OC)c2F)Cc2cnc3[nH]c(CN4CCOCC4)cc3c21 [pemigatinib],0.945
13,C[C@]12CCC3=C4CCC(=O)C=C4CC[C@H]3[C@@H]1CC[C@@]2(O)CC#N [Dienogest] + CCN1C(=O)N(c2c(F)c(OC)cc(OC)c2F)Cc2cnc3[nH]c(CN4CCOCC4)cc3c21 [pemigatinib],0.99
14,C[C@@H]1C[C@H]2[C@@H]3CCC4=CC(=O)C=C[C@]4(C)[C@@]3(Cl)[C@@H](O)C[C@]2(C)[C@@]1(OC(=O)c1ccco1)C(=O)CCl [Mometasone furoate] + CCN1C(=O)N(c2c(F)c(OC)cc(OC)c2F)Cc2cnc3[nH]c(CN4CCOCC4)cc3c21 [pemigatinib],0.89
15,CCOC(=O)[C@H](CCc1ccccc1)N[C@@H](C)C(=O)N1C(=O)N(C)C[C@H]1C(=O)O [Imidapril HCl] + CCN1C(=O)N(c2c(F)c(OC)cc(OC)c2F)Cc2cnc3[nH]c(CN4CCOCC4)cc3c21 [pemigatinib],1.04
16,CC[C@@H](C)Nc1cc(C(=O)N[C@H]2C[C@H]3CC[C@@H](C2)N3c2ccc(C(=O)C3CC3)cn2)c(C)cc1C(N)=O + CCN1C(=O)N(c2c(F)c(OC)cc(OC)c2F)Cc2cnc3[nH]c(CN4CCOCC4)cc3c21 [pemigatinib],0.294
17,OCCN(CCO)c1nc(N2CCCCC2)c2nc(N(CCO)CCO)nc(N3CCCCC3)c2n1 [Dipyridamole] + CCN1C(=O)N(c2c(F)c(OC)cc(OC)c2F)Cc2cnc3[nH]c(CN4CCOCC4)cc3c21 [pemigatinib],0.894
18,Cc1ccc(NC(=O)c2cccc(C(C)(C)C#N)c2)cc1Nc1ccc2ncn(C)c(=O)c2c1 + CCN1C(=O)N(c2c(F)c(OC)cc(OC)c2F)Cc2cnc3[nH]c(CN4CCOCC4)cc3c21 [pemigatinib],0.831
